In PMC3576711:
Results are given in words; binding and its absence hold for the method and conditions named. For part of these data: Binding seen in cells or lysates may run through a third protein. Some binding calls cover weakened binding; strength is not graded here. Sequences can lack the tags named with a protein.

T1: TLR7-V5-His (UniProt P58681)
T1 sequence: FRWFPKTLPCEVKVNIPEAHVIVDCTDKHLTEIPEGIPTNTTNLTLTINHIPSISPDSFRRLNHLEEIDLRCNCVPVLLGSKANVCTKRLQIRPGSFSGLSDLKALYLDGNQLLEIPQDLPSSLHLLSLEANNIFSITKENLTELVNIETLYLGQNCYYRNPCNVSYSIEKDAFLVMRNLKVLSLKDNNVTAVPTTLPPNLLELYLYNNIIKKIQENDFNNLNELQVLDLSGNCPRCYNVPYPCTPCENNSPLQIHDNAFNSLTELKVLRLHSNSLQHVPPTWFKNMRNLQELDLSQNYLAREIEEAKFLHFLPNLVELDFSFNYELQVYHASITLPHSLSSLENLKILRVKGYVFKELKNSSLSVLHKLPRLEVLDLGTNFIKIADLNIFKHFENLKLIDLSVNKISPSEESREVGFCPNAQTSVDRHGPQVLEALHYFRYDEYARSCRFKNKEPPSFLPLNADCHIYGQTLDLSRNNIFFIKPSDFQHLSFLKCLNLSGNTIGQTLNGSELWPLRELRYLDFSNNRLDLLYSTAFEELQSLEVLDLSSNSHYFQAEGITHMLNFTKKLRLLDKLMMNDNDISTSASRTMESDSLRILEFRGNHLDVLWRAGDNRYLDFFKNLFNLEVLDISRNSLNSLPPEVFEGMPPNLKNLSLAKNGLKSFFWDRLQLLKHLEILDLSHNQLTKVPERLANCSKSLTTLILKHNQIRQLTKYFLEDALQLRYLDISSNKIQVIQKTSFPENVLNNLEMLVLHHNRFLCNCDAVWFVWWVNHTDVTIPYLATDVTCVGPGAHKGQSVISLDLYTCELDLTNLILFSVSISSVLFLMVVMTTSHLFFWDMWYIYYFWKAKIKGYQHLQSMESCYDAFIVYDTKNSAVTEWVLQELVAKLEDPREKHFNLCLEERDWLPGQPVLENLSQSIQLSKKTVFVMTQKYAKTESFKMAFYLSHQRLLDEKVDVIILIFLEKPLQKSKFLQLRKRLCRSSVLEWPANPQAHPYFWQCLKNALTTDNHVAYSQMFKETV

T2: TLR9-HA, full-length forms (ER and Golgi-modified precursor) (UniProt Q9EQU3)
T2 sequence: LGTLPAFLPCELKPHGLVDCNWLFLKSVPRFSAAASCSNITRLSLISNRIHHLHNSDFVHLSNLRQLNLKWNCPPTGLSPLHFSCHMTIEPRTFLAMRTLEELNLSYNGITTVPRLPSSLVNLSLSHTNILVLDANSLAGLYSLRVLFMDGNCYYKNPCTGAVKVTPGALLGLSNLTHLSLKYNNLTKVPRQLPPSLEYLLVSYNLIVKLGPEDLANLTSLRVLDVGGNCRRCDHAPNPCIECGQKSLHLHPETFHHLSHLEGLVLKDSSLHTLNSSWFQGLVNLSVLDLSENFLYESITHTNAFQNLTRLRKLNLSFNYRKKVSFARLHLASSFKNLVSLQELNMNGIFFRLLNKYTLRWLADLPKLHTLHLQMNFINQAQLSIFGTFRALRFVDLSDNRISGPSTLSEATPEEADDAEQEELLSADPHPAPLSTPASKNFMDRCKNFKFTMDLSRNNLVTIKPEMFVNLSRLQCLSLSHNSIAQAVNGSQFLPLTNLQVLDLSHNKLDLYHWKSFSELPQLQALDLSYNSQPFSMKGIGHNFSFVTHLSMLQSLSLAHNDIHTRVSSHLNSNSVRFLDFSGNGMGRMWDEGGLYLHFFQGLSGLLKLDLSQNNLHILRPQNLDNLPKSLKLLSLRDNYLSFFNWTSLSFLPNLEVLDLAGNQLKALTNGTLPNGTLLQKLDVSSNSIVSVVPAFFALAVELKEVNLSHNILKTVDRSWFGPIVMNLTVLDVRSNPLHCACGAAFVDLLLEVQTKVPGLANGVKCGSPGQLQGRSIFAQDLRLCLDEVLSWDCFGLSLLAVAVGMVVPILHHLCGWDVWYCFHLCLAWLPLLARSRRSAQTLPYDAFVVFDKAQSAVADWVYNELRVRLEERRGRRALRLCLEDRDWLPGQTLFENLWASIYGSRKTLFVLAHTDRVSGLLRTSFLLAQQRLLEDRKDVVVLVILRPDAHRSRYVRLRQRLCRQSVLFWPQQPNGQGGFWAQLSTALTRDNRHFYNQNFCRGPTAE

T3: UNC93B1 C-terminal cytosolic region (515-598 a.a.) fused to the Gal4 DNA binding domain (mouse) (UniProt Q8VCW4)
T3 sequence: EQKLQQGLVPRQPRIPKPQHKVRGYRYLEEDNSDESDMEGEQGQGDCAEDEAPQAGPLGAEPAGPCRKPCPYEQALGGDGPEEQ

B1: UNC93B1-WT, C-terminal eGFP tag (3d iMac cells) (protein, UniProt Q8VCW4 1-598)
chain: MEVEPPLYPVAGAAGPQGDEDRHGVPDGPEAPLDELVGAYPNYNEEEEERRYYRRKRLGVVKNVLAASTGVTLTYGVYLGLLQMQLILHYDETYREVKYGNMGLPDIDSKMLMGINVTPIAALLYTPVLIRFFGTKWMMFLAVGIYALFVSTNYWERYYTLVPSAVALGMAIVPLWASMGNYITRMSQKYYEYSHYKEQDEQGPQQRPPRGSHAPYLLVFQAIFYSFFHLSFACAQLPMIYFLNNYLYDLNHTLINVQSCGTKSQGILNGFNKTVLRTLPRSKNLIVVESVLMAVAFLAMLMVLGLCGAAYRPTEEIDLRSVGWGNIFQLPFKHVRDFRLRHLVPFFIYSGFEVLFACTGFALGYGVCSMGLERLAYLLIAYSLGASASSVLGLLGLWLPRSVPLVAGAGLHLLLTLSLFFWAPAPRVLQHSWIFYFVAALWGVGSALNKTGLSTLLGILYEDKERQDFIFTIYHWWQAVAIFVVYLGSSLPMKAKLAVLLVTLVAAAASYLWMEQKLQQGLVPRQPRIPKPQHKVRGYRYLEEDNSDESDMEGEQGQGDCAEDEAPQAGPLGAEPAGPCRKPCPYEQALGGDGPEEQ
B2: AP-4μ fused to the Gal4 activation domain (protein, UniProt O00189 1-453)
chain: MISQFFILSSKGDPLIYKDFRGDSGGRDVAELFYRKLTGLPGDESPVVMHHHGRHFIHIRHSGLYLVVTTSENVSPFSLLELLSRLATLLGDYCGSLGEGTISRNVALVYELLDEVLDYGYVQTTSTEMLRNFIQTEAVVSKPFSLFDLSSVGLFGAETQQSKVAPSSAASRPVLSSRSDQSQKNEVFLDVVERLSVLIASNGSLLKVDVQGEIRLKSFLPSGSEMRIGLTEEFCVGKSELRGYGPGIRVDEVSFHSSVNLDEFESHRILRLQPPQGELTVMRYQLSDDLPSPLPFRLFPSVQWDRGSGRLQVYLKLRCDLLSKSQALNVRLHLPLPRGVVSLSQELSSPEQKAELAEGALRWDLPRVQGGSQLSGLFQMDVPGPPGPPSHGLSTSASPLGLGPASLSFELPRHTCSGLQVRFLRLAFRPCGNANPHKWVRHLSHSDAYVIRI

Legend:
TLR7-V5-His = target: T1, TLR7-V5-His; assay: co-IP; 3d iMac cells expressing TLR9-HA, TLR7-V5-His and WT UNC93B1-GFP lysed in TNT buffer, incubated with anti-HA matrix or anti-V5 protein A/G beads; immunoblot with HA, GFP and V5 antibodies
[1] = target: T2, TLR9-HA, full-length forms (ER and Golgi-modified precursor); assay: as above
[2] = target: T3, UNC93B1 C-terminal cytosolic region (515-598 a.a.) fused to the Gal4 DNA binding domain (mouse); assay: two-hybrid; yeast strain PJ69-4a; AP µ subunits fused to the Gal4 activation domain, tails fused to the Gal4 DNA binding domain; growth on -Trp-Leu-His or -Trp-Leu-Ade plates at 30°C recorded at day 3

Binder	binding (TLR7-V5-His)	binding [1]	binding [2]
B1	binds	binds	–
B2	–	–	no binding
